In PubChem BioAssay AID1030 (National Center for Advancing Translational Sciences (NCATS), 2008):
Screen size: about 220,000 compounds; about 16,000 (7.3%) were called active. Inconclusive means that the source gave no clear call. Such entries were picked first, then a sample of the others. Calls come from the whole dose curve; as a rule, active = well fitted inhibition curve with a large enough effect (not every such curve was filed as active); inconclusive = small, poorly fitted or top-dose-only effect, or another doubt; inactive = no such curve, though single readings can be large or run the other way. No potency is given beside an inconclusive call; the fits are too rough.

molecular target: Aldehyde dehydrogenase 1A1 (Homo sapiens) (UniProt P00352); assay: qHTS Assay for Inhibitors of Aldehyde Dehydrogenase 1 (ALDH1A1); details: Purified ALDH1A1, NADH fluorescence, propionaldehyde substrate; series mostly up to 75.3 µM
Sequence of UniProt P00352 (P00352 whole entry, looked up): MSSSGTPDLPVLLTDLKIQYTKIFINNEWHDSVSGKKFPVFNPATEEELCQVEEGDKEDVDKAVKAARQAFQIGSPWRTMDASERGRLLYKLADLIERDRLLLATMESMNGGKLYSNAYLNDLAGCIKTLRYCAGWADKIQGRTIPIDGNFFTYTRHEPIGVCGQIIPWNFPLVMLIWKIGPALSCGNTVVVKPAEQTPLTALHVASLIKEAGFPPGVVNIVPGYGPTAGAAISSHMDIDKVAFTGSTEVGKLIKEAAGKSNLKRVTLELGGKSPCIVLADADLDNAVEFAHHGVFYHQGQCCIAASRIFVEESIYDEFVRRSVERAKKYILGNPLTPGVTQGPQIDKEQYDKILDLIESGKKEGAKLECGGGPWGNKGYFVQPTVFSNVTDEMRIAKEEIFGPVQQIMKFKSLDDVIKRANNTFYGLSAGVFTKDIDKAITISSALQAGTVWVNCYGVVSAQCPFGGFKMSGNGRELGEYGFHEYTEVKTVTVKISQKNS
Potency is the fitted concentration of half-maximal effect; tags give direction and shape of the fitted curve.

SMILES | Potency
CCOC(=O)/C(C#N)=C/c1cn(CCC(=O)O)nc1-c1ccc(Br)cc1 | inactive
O=C(CSc1ccc([N+](=O)[O-])cc1)Nc1cccc(S(=O)(=O)Nc2ccccc2F)c1 | active: 5.01 µM
COc1ccc(-c2cc(=O)c3ccccc3o2)cc1 | inconclusive [inhibitor, partial curve]
CCOc1ccc(/C(O)=C2/C(=O)C(=O)N(CCCn3ccnc3)C2c2cccs2)cc1Cl (configuration not stated) | inconclusive [inhibitor, single point]
Cc1ccccc1C1C2=C(Nc3[nH]n(-c4ccccc4)c(=O)c31)c1ccccc1C2=O (configuration not stated) | inconclusive [inhibitor, single point]
CCN(CC)S(=O)(=O)c1ccc2c(c1)nc(SCC(=O)N1CCCCCC1)n2-c1ccc(OC)cc1 | inactive
Cc1c(-c2ccccc2)[n+](=O)c(-c2ccc(Cl)cc2)c(C)n1[O-] | inconclusive [inhibitor, single point]
Cc1ccc(S(=O)(=O)N2CCCN(c3nc4cc(C)ccc4cc3C#N)CC2)cc1 | inconclusive [inhibitor, partial curve]
O=C(COc1ccccc1)N1CCN=C1c1ccccc1 | inactive
O=[N+]([O-])c1cc(S(=O)(=O)Nc2cccc(Cl)c2)ccc1N=Nc1c(O)[nH]c2ccccc12 | inactive
CCCc1nnc(NS(=O)(=O)c2ccc(OC)cc2)s1 | inconclusive [inhibitor, single point]
Oc1ccccc1C(Sc1nc2ccccc2s1)Sc1nc2ccccc2s1 | active: 0.708 µM
CCOC(=O)c1cc(NC(=O)N(CC)C2CCCCC2)c(C)nc1C | inconclusive [inhibitor, partial curve]
COc1ccc(N2CCN(C3=CC(=O)N(c4cccc(Cl)c4)C3=O)CC2)cc1 | inconclusive [inhibitor, partial curve]
COc1ccc(N2CCN(CCNC(=O)c3ccc4c(c3)[nH]c(=S)n3c5ccccc5nc43)CC2)cc1 | inconclusive [inhibitor, partial curve]
O=C(Nc1ccccc1C(=O)N1CCCC1)c1cccc(S(=O)(=O)N2CCCCC2)c1 | inactive
CC(C)c1ccc(NC(=S)NNC(=O)c2cccs2)cc1 | active: 20 µM
Cn1c(=S)[nH]c2scc(-c3cccs3)c2c1=O | active: 22.4 µM
COc1ccc2nc(SCC(=O)O)nc(C)c2c1 | inconclusive [inhibitor, partial curve]
COC(=O)c1sc(S(=O)(=O)N2CCCCC2C(=O)O)c(C(=O)OC)c1C (configuration not stated) | inconclusive [inhibitor, single point]
Cc1nc2scc(-c3cccs3)c2c(=O)[nH]1 | active: 11.2 µM
COc1cc(=O)n(C)c2cc(N(C)C)ccc12 | inconclusive [inhibitor, partial curve]
CN(C)CCN1C(=O)C(O)=C(C(=O)c2cc3ccccc3o2)C1c1ccc(N(C)C)cc1 (configuration not stated) | active: 28.2 µM
O=C(Nc1nc2ccccc2[nH]1)c1ccc(Br)o1 | inactive

SMILES | Potency
Cc1nc2cc(-c3sccc3-n3cccc3)nn2c(C)c1C | inconclusive [inhibitor, partial curve]
CCOc1ccc(-c2nc(C#N)c(NCc3ccc4c(c3)OCO4)o2)cc1 | inconclusive [inhibitor, single point]
COC(=O)c1cc2c(ccn2-c2ccc(F)cc2)n1CC(=O)OC(C)C | inconclusive [inhibitor, single point]
CCCCCn1c(CN2CCN(c3cc(Cl)ccc3C)CC2)nc2c1c(=O)[nH]c(=O)n2C | active: 14.1 µM
Cc1oc(-c2ccccc2Cl)nc1CN1CCCCC1c1cccnc1 (configuration not stated) | inactive
O=C(CCNS(=O)(=O)c1cccc2nonc12)NCCc1ccc(Cl)cc1 | active: 20 µM
O=C(c1ccco1)N1CCN(c2nc(C3CC3)nc3c2nnn3Cc2ccccc2Cl)CC1 | inconclusive [inhibitor, partial curve]
Cc1ccc(-c2nc3cc(N)ccc3o2)cc1 | inconclusive [inhibitor, single point]
COCCCn1c(=N)c(C(=O)NC2CCCCC2)cc2c(=O)n3ccccc3nc21 | inconclusive [inhibitor, partial curve]
CN(C)S(=O)(=O)c1ccc(NC(=O)C2CC(=O)N(Cc3ccccc3)C2)cc1 (configuration not stated) | inconclusive [inhibitor, single point]
CCC1=C2CC[C@H]3C(=O)N(c4ccccc4)C(=O)[C@H]3[C@H]2[C@@]2(Cc3ccccc3)C(=NCCc3c[nH]c4ccccc34)OC(=O)N2C1=O | inactive
CCCCCN(C(=O)NC(=O)Nc1ccc(C)cc1)S(=O)(=O)c1ccccc1 | inactive
CCS(=O)(=O)N1CCCC(C(=O)NCCc2ccc(OC)c(OC)c2)C1 (configuration not stated) | inactive
NNC(=O)Cn1c2ccccc2c2ccccc21 | inactive
COC(=O)c1c(N)sc2c1CC(C)(C)OC2 | inconclusive [inhibitor, single point]
CCCOC(=O)c1c(N)sc2c1CCC2 | active: 28.2 µM
COc1ccc(S(=O)(=O)NCCc2nnc3ccc(SCc4cccnc4)nn23)cc1 | inactive
CN1CCN(c2ncc3nc(-c4cccs4)c(=O)n(C[C@H]4CCCO4)c3n2)CC1 | inconclusive [inhibitor, full curve]
CCOc1ccc(N2C(=O)CC(NC3CCCCNC3=O)C2=O)cc1 (configuration not stated) | active: 20 µM
Cc1ccc(CN2CCN(CC(=O)NC(C)c3ccc4c(c3)OCCO4)C2=O)cc1 (configuration not stated) | inconclusive [inhibitor, single point]
CCc1c2c(nc3cccc(C(C)C)c13)-c1cccc(=O)n1C2 | inconclusive [inhibitor, partial curve]
CCCNc1nc(-c2ccccc2)c(C(=O)OCC)cc1C#N | inconclusive [inhibitor, single point]
Cc1cc(-c2ccc(N=Nc3ccc4c(S(=O)(=O)O)cc(S(=O)(=O)O)c(N)c4c3O)c(C)c2)ccc1N=Nc1ccc2c(S(=O)(=O)O)cc(S(=O)(=O)O)c(N)c2c1O | inconclusive [inhibitor, single point]
